The full ranking holds about 81,000 sequences; the median of “one-hybrid fitness for binding parS DNA” is about -0.17, and the highest 2% start at about 0.51. The list shows a part of the results.
B1: Caulobacter ParB omega fusion; a variant is named by its letters at X, in order, B8GW30 (parent)
chain: MESVVVGEPGMSEGRRGLGRGLSALLGEVDAAPAQAPGEQLGGSREAPIEILQRNPDQPRRTFREEDLEDLSNSIREKGVLQPILVRPSPDTAGEYQIVAGERAWRAAQRAGLKTVPIMVRELDDLAVLEIGIIENVQRADLNVLEEALSYKVLMEKFERTQENIAQTIGKSXSHVANXMRLLXLPDEVQSYLVSGELTAXHARAIAAAADPVALAKQIIEGGLSVRETEALARKAPNLSAGKSKGGRPPRVKDTDTQALESDLSSVLGLDVSIDHRGSTGTLTITYATLEQLDDLCNRLTRGI

Variants of: B1
Experiment: one-hybrid fitness for binding parS DNA (scaled: cognate 1, non-cognate 0); higher = stronger binding
Details: with parS DNA site
Summary of the method: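 In E. coli USO, a HIS3 reporter with its site placed 19 bp from the promoter was used to select Caulobacter ParB variants randomised at four specificity codons. Growth lasted 48 hours at 37°C on histidine-free M9 containing 0.1 mM IPTG and 5 mM 3-AT. Fitness was taken as the log change in variant-to-wild-type read ratio from Illumina sequencing of pre- and post-selection plasmids, rescaled between the non-cognate and cognate sites.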

Variant	one-hybrid fitness for binding parS DNA
WKAG	≤ 0.2
LLIG	≤ 0.2
SSRG	≤ 0.2
MEAE	≤ 0.2
PGNS	≤ 0.2
QRRS	≤ 0.2
RPGE	≤ 0.2
YRHE	≤ 0.2
TKYR	≤ 0.2
GFGS	≤ 0.2
SWGI	≤ 0.2
KTCN	≤ 0.2
YEST	≤ 0.2
DRPR	≤ 0.2
REID	≤ 0.2
IVRY	≤ 0.2
WHRT	≤ 0.2
VNIY	≤ 0.2
AWWG	≤ 0.2
VVDS	≤ 0.2
EVLT	≤ 0.2
FLAC	≤ 0.2
QDPM	≤ 0.2
LHPH	≤ 0.2

Variant	one-hybrid fitness for binding parS DNA
FASY	≤ 0.2
NMYT	≤ 0.2
WKTT	≤ 0.2
QMRC	≤ 0.2
RKFQ	≤ 0.2
WAYH	≤ 0.2
KTMP	≤ 0.2
NMPI	≤ 0.2
VTDM	≤ 0.2
TQHN	≤ 0.2
SPLR	≤ 0.2
CGAS	≤ 0.2
FVPY	≤ 0.2
YGNL	≤ 0.2
YSLI	≤ 0.2
CPHM	≤ 0.2
SMTI	≤ 0.2
TLDR	≤ 0.2
NDGY	≤ 0.2
RFNT	0.862
KRGV	≤ 0.2
RDSK	≤ 0.2
HGIG	≤ 0.2
CVWS	≤ 0.2

Variant	one-hybrid fitness for binding parS DNA
QHRH	≤ 0.2
AKEW	≤ 0.2
RCVV	≤ 0.2
QKFL	≤ 0.2
SAHY	≤ 0.2
PLCY	≤ 0.2
TNSR	≤ 0.2
WWPT	≤ 0.2
SDDL	≤ 0.2
NNAP	≤ 0.2
NRKR	≤ 0.2
DNTR	≤ 0.2
SYKN	≤ 0.2
AARS	≤ 0.2
VTAR	≤ 0.2
SPNG	≤ 0.2
AHHY	≤ 0.2
PVPS	≤ 0.2
HLWS	≤ 0.2
LQRS	≤ 0.2
WPLK	≤ 0.2
SYLD	≤ 0.2
MCPR	≤ 0.2
PPMP	≤ 0.2

Variant	one-hybrid fitness for binding parS DNA
SLAQ	≤ 0.2
QDMV	≤ 0.2
QHEE	≤ 0.2
PPPL	≤ 0.2
YRRC	0.431
SHDD	≤ 0.2
SSSQ	≤ 0.2
RLLK	≤ 0.2
KTHY	≤ 0.2
CTSC	≤ 0.2
KWKC	0.238
SLDV	≤ 0.2
HWDT	≤ 0.2
MKHR	≤ 0.2
IRAD	≤ 0.2
PHLD	≤ 0.2
HPAC	≤ 0.2
SAQY	≤ 0.2
ELRS	≤ 0.2
HLHS	≤ 0.2
VCTM	≤ 0.2
ANIC	≤ 0.2
DEGT	≤ 0.2
HARW	≤ 0.2

Variant	one-hybrid fitness for binding parS DNA
HRNN	≤ 0.2
GSSV	≤ 0.2
TDND	≤ 0.2
GGKS	≤ 0.2
LVPI	≤ 0.2
IANM	≤ 0.2
RFWD	≤ 0.2
HLNE	≤ 0.2
EKVW	≤ 0.2
TANP	≤ 0.2
SGWL	≤ 0.2
ADDL	≤ 0.2
KYMP	≤ 0.2
CTRV	≤ 0.2
REGP	≤ 0.2
GAAA	≤ 0.2
GRSH	≤ 0.2
GEHL	≤ 0.2
RTFI	≤ 0.2
LDNF	≤ 0.2
YRDF	≤ 0.2
ALTL	≤ 0.2
IHTT	≤ 0.2
FYHT	≤ 0.2

Variant	one-hybrid fitness for binding parS DNA
DRNC	≤ 0.2
RDAW	≤ 0.2
TADL	≤ 0.2
EVET	≤ 0.2
NSMS	≤ 0.2
LTNY	≤ 0.2
RCRQ	≤ 0.2
RYKQ	≤ 0.2
VSSK	≤ 0.2
QVMA	≤ 0.2
NDRL	≤ 0.2
CHCR	≤ 0.2
MAGC	≤ 0.2
WSSI	≤ 0.2
AYGY	≤ 0.2
SVAF	≤ 0.2
QSMI	≤ 0.2
SVRC	≤ 0.2
WIYE	≤ 0.2
GPEY	≤ 0.2
VING	≤ 0.2
QEMT	≤ 0.2
VTGP	≤ 0.2
PYQS	≤ 0.2

Variant	one-hybrid fitness for binding parS DNA
SYNK	≤ 0.2
HLNG	≤ 0.2
YMRG	≤ 0.2
EARV	≤ 0.2
HNAR	≤ 0.2
AWVC	≤ 0.2
VAAC	≤ 0.2
YGKM	≤ 0.2
YESR	≤ 0.2
QADI	≤ 0.2
LNPM	≤ 0.2
LEKQ	≤ 0.2
LIWR	≤ 0.2
AGIA	≤ 0.2
SKLA	≤ 0.2
EKLV	≤ 0.2
FYNS	≤ 0.2
KWNT	≤ 0.2
QQYP	≤ 0.2
WSNR	≤ 0.2
KAKT	≤ 0.2
WHLG	≤ 0.2
NVLS	≤ 0.2
NVTD	≤ 0.2

Variant	one-hybrid fitness for binding parS DNA
RLFL	≤ 0.2
IRWV	≤ 0.2
RFCD	≤ 0.2
QRCG	≤ 0.2
YQKV	≤ 0.2
EYVG	≤ 0.2
DQKG	≤ 0.2
ALSP	≤ 0.2
RPFS	≤ 0.2
LTLH	≤ 0.2
GFSA	≤ 0.2
MSEC	≤ 0.2
REEG	≤ 0.2
LSLF	≤ 0.2
RRSE	≤ 0.2
ARYI	≤ 0.2
DDTM	≤ 0.2
AWPC	≤ 0.2
RVAP	≤ 0.2
PKHM	≤ 0.2
LTNK	≤ 0.2
SIGP	≤ 0.2
QKDA	≤ 0.2
RSDT	0.696

Variant	one-hybrid fitness for binding parS DNA
RWPF	≤ 0.2
ASTC	≤ 0.2
YYDN	≤ 0.2
TTFY	≤ 0.2
HELA	≤ 0.2
RDLE	≤ 0.2
KLTV	≤ 0.2
SSES	≤ 0.2
DKFY	≤ 0.2
VATP	≤ 0.2
PLVT	≤ 0.2
CPMS	≤ 0.2
WNDC	≤ 0.2
KLNG	≤ 0.2
WAVG	≤ 0.2
HIPC	≤ 0.2
ALKY	≤ 0.2
QRQE	≤ 0.2
RRHS	0.645
HPCR	≤ 0.2
NMAN	≤ 0.2
CWAM	≤ 0.2
HTMY	≤ 0.2
AQTC	≤ 0.2

Variant	one-hybrid fitness for binding parS DNA
KWKV	≤ 0.2
QGIL	≤ 0.2
LIEL	≤ 0.2
NDPR	≤ 0.2
HAFP	≤ 0.2
SRQD	≤ 0.2
KRIL	≤ 0.2
YRYY	≤ 0.2
DFRT	≤ 0.2
VSDT	≤ 0.2
NSAF	≤ 0.2
SEER	≤ 0.2
LPTS	≤ 0.2
QKNV	≤ 0.2
GLKT	≤ 0.2
SYIG	≤ 0.2
PEIW	≤ 0.2
MQSS	≤ 0.2
HPML	≤ 0.2
YCGR	≤ 0.2
IVDS	≤ 0.2
FSVG	≤ 0.2
PEYC	≤ 0.2
AYPL	≤ 0.2

Variant	one-hybrid fitness for binding parS DNA
SSMT	≤ 0.2
AGQS	≤ 0.2
QDPK	≤ 0.2
AETA	≤ 0.2
DKLG	≤ 0.2
AMWF	≤ 0.2
APGH	≤ 0.2
SVSL	≤ 0.2
MKTD	≤ 0.2
NSGP	≤ 0.2
YVTS	≤ 0.2
LYKC	≤ 0.2
VPYF	≤ 0.2
PNSK	≤ 0.2
LFRT	≤ 0.2
NPPS	≤ 0.2
SNGM	≤ 0.2
ATEQ	≤ 0.2
ASRV	≤ 0.2
IHWT	≤ 0.2
RMMD	≤ 0.2
RARC	0.921
YELT	≤ 0.2
DCSA	≤ 0.2

Variant	one-hybrid fitness for binding parS DNA
NSPA	≤ 0.2
YTQR	≤ 0.2
SLWL	≤ 0.2
QMSR	≤ 0.2
PLNI	≤ 0.2
MAIY	≤ 0.2
VPMC	≤ 0.2
PKLT	≤ 0.2
EAGS	≤ 0.2
QYLT	≤ 0.2
QDSA	≤ 0.2
TQQG	≤ 0.2
ALDA	≤ 0.2
MYYR	≤ 0.2
HEKN	≤ 0.2
CLPK	≤ 0.2
PPNK	≤ 0.2
VLDT	≤ 0.2
HQCK	≤ 0.2
NIAG	≤ 0.2
GVST	≤ 0.2
ILHT	≤ 0.2
IWVR	≤ 0.2
MHLR	≤ 0.2

Variant	one-hybrid fitness for binding parS DNA
PREI	≤ 0.2
INRL	≤ 0.2
RHAA	0.534
YNNM	≤ 0.2
GMTG	≤ 0.2
LSFL	≤ 0.2
PSSF	≤ 0.2
HRVR	≤ 0.2
QTDV	≤ 0.2
VMEV	≤ 0.2
ATWS	≤ 0.2
GLHW	≤ 0.2
VRRG	≤ 0.2
ARLL	≤ 0.2
PVYV	≤ 0.2
QNTK	≤ 0.2
HHDC	≤ 0.2
YKPM	≤ 0.2
